Test results as given in the RNAGym collection of RNA variant scans (doi:10.1093/nar/gkz1192).
The source gives no read counts; variants with many changes may rest on few reads.

B1: CPEB3 Ribozyme (parent)
chain: UAACAGGGGGCCACAGCAGAAGCGUUCACGUCGCAGCCCCUGUCAGAUUCUGGUGAAUCUGCGAAUUCUGCUGUAUAUCUC

Variants of: B1
Test: self-cleavage, relative activity (ratio to wild type); higher = more cleavage; in vitro, sequencing
Summary of the method: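 Relative activity compares each variant's cleaved/total read fraction with that of the unmutated ribozyme. To get these fractions, barcoded CPEB3 ribozyme libraries from rounds of error-prone PCR were transcribed with T7 RNA polymerase for 5 hours at 37°C and then given 15 min of DNase I treatment before EDTA was added. The RNAs were reverse transcribed with template switching and sequenced on Illumina, and DNA sequencing linked barcodes to variants. A minimum of 5 reads applied, and three batches were averaged.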

Row | Variant | self-cleavage
1 | A13G A18U U41C U66C | 0.51
2 | A13G A45G C62U | 0.24
3 | A13G C32U C37A U51A U80C | 0.21
4 | A13G C23A U31A G73A | 0.1
5 | A13C A35G A56U A57G U58A U74C | 0.78
6 | A13C A28G A35G A64U | 0.26
7 | A13G U25G A28U | 0.17
8 | A13G A20G A28G G33U U67C A77G | 0
9 | A13G U25C A35G U43C U60C | 0.15
10 | A13G U31A U43C | 0.21
11 | A13G A21G A35G U67C U69G | 0.14
12 | A13G A28U G55A U78C | 0.24
13 | A13G C32U U41A U67C A75U | 0.06
14 | A13G A20G A21G U51C | 0.07
15 | A13G A15U A45U U76C | 0.42
16 | A13C U31C G36A A47U U54C | 0.07
17 | A13G A18C U25C U48C U67A | 0.05
18 | A13G U54C A65G | 0.25
19 | A13G A35U C40A | 0.38
20 | A13G A18G G33U A35C U48C A77U | 0.18
21 | A13G A15G C32U U43C A57G A65G | 0.05
22 | A13G A18G A64U | 0.27
23 | A13G A35G U51A U54A A57G | 0.72
24 | A13G U78C U80C | 0.52

Row | Variant | self-cleavage
25 | A13G C40A A56U A65G | 0.09
26 | A13G A28G C38U | 0.27
27 | A13G C14A A20G G24U U31A C38U | 0.23
28 | A13G U31C U41A U72C | 0.2
29 | A13G A18G C29U C37U A56G A64G U72C | 0.1
30 | A13G G30A A57G | 0.2
31 | A13G U43A U54A A57G A64G | 0.65
32 | A13G G16A A18G U25C G63U G70U | 0.23
33 | A13C A28G U31C U43C | 0.17
34 | A13G C40U U43C U51C A57G | 0.32
35 | A13G U48C U51C | 0.37
36 | A13G U67A U69A | 0.06
37 | A13G U26C C29U U49C A64U | 0.13
38 | A13G U25C U41C U58A | 0.08
39 | A13G U58C U72G | 0.07
40 | A13G A64G U66C | 0.15
41 | A13G C50U U67C | 0.1
42 | A13G A47U U67C U72C | 0.08
43 | A13C U31C U58C U60A | 0.14
44 | A13G C40A A45G U72C | 0
45 | A13G A20G U26A A56U U69C | 0.06
46 | A13G U25C A35C U41C U67C | 0.48
47 | A13G C17U A47G U60C | 0.1
48 | A13G C38U U43C U72C | 0.18

Row | Variant | self-cleavage
49 | A13G A45U U67A U72C | 0.11
50 | A13G G42C U60C | 0.17
51 | A13G A20G A57G A65G U69A | 0.17
52 | A13C A20G U78C | 1.03
53 | A13G U25C A47G U76A | 0.39
54 | A13G A15G U41A A45U | 0.28
55 | A13G U26C A56G | 0.16
56 | A13G U25C U26A U60C | 0.32
57 | A13G U41C G63U | 0.81
58 | A13G G19A A21G A45G | 0.11
59 | A13G A45U U67C U78C | 0.11
60 | A13G C29U U51C U69C | 0.15
61 | A13G U31C C40A C44A U69A U80C | 0.35
62 | A13G U48C U72A | 0.2
63 | A13G U48G U76C | 0.41
64 | A13G U31A U60G C62G | 0.11
65 | A13G A20G A28G A64G U66C U78C | 0.08
66 | A13G A45G U72A | 0.43
67 | A13C A20U A21U U78A | 0.26
68 | A13G U41C A47G | 0.52
69 | A13G A47U A64U A65G | 0.33
70 | A13G A21G C59A C71U U72C | 0.13
71 | A13G G42A C44U | 0.26
72 | A13C A21G U49A G55A U60C | 0.06

Row | Variant | self-cleavage
73 | A13G U31C A65U | 0.17
74 | A13G A28G U54C A65G U67C U72A C79U | 0
75 | A13G A45U U51C U54C U74C U78C | 0.25
76 | A13G A15G C29A A56G A64U U67C U76A | 0.06
77 | A13G U26A G61C | 0.16
78 | A13G U43C A45G | 0.36
79 | A13G G53A U67C U78C | 0.18
80 | A13C A56G U72C | 0.35
81 | A13G U25A U41A U49A U51G G63U | 0.23
82 | A13G G42A U76A | 0.16
83 | A13G A35G U48C A77U | 0.55
84 | A13G A18G C23A A45G A77G | 0.29
85 | A13G A20G U26C U41A U60A U69C | 0.04
86 | A13G C40A U58C U67C G73A | 0.21
87 | A13G U43C U49C | 0.39
88 | A13G U25C U48A U69C U76C | 0.06
89 | A13G U25C C37U G55U U66C U78C | 0.05
90 | A13G U41C U51G U54C | 0.37
91 | A13G C14A A15G | 0.81
92 | A13G U41C A56G U80C | 0.84
93 | A13G C32A A45U G70C | 0.09
94 | A13G A15G U25A G33A U67A U80A | 0.26
95 | A13G U41G A57G | 0.37
96 | A13G C29U G46U C62U U69A | 0.11

Row | Variant | self-cleavage
97 | A13G U51C A57G U58C | 0.14
98 | A13G C39A A77U | 0.12
99 | A13G G22C G73C | 0.1
100 | A13G A64U U69A U78C | 0.22
101 | A13G U26C U72A A75G | 0.12
102 | A13C A57U U58A U78A | 0.16
103 | A13G G16A U54A U72C | 0.34
104 | A13G A21G U48A | 0.05
105 | A13G A20G U49C A77U | 0.24
106 | A13G A21G C32G A47U U69A U72C | 0.07
107 | A13G A21G C29U U43G | 0.06
108 | A13C A21G C29U U51G U69A | 0.01
109 | A13G A18U A20G U31A U60C U74A | 0.06
110 | A13G A15G A20U A47U U54G | 0.3
111 | A13G C29U G33A U49C U60A | 0.07
112 | A13G U26C U49C U58C | 0.23
113 | A13G U74C U80G | 0.77
114 | A13G U31A A64G | 0.24
115 | A13G G36A U60A | 0.09
116 | A13G C39U U41C A45U | 0.33
117 | A13G C17G U41C U49C | 0.25
118 | A13G C23U U25A A47U A77G | 0.05
119 | A13G C44G U48A U49A C62U U69G A77G | 0.03
120 | A13G C32A A45G U51C | 0.16

Row | Variant | self-cleavage
121 | A13G U48C U51C U80C | 0.4
122 | A13G U48C G53A A65G | 0.19
123 | A13G G33C A47G U49C | 0.14
124 | A13G A35G U49A A75G | 0.39
125 | A13G C17A U25C U69C A75G | 0.09
126 | A13G C34U U60A A64G | 0.18
127 | A13G G52U A57G U80A | 0.89
128 | A13G U26A A65U U80C | 0.29
129 | A13G U26C A64G | 0.32
130 | A13G U26C A64U | 0.15
131 | A13G A45G A56G U80A | 0.68
132 | A13G U26C U43C | 0.56
133 | A13G A21G A45G | 0.33
134 | A13G A20G U25C G33C | 0.24
135 | A13G U26A U41C U49C U76C | 0.04
136 | A13G U72C U78C | 0.87
137 | A13C U51A C81G | 1.19
138 | A13G U26C U41C U49A U51C A56U A57G | 0.08
139 | A13G A20G A64G | 0.31
140 | A13C C17A A18G C29A U51C A75G | 0.22
141 | A13G A28G A57G | 0.41
142 | A13G U25C A35G U51C | 0.37
143 | A13G A28G A47G U49A U60C | 0.13
144 | A13G G30U G53A U60C U66C U69A U72A | 0.07

Row | Variant | self-cleavage
145 | A13G U25C A28G U31C A64G U74A | 0.14
146 | A13G U26C C62U | 0.21
147 | A13C A21G U43C U60C U80A | 0.02
148 | A13G C27A G33A A56U | 0.09
149 | A13G U48C U51C G52A A64G U69C | 0.12
150 | A13G A28U G63U A75U | 0.59
151 | A13G A15G U26A | 0.38
152 | A13G A15U A28G U60C U67C U72G A75U | 0.03
153 | A13G U41A U49C A56U U78C | 0.15
154 | A13G U25G G30C U76C A77G | 0.09
155 | A13G U43G U48C | 0.14
156 | A13G C17U U51A | 0.22
157 | A13G A35U U41C A64U | 0.17
158 | A13G G16C G19U | 0.34
159 | A13G A18G G24A U26C A56U U72C A75G | 0.06
160 | A13G A15G C38U U54C U72C | 0.4
161 | A13G U26C A35U U69A U72C | 0.2
162 | A13G A28G U43A A64G | 0.36
163 | A13G A18U U43A U69A U80A | 1.14
164 | A13G A21G A56G C59U U67C | 0.14
165 | A13G U26C A35G A57G U67C | 0.1
166 | A13G A20G A75G | 0.54
167 | A13G U25C U31C A64G U74A | 0.21
